Source: paper PMC6919601, “Identification of Plasmodium dipeptidyl aminopeptidase allosteric inhibitors by high throughput screening” (PLoS ONE, 2019)
Hit rate of the full screen: of about 110,000 compounds, about 230 (0.21%) showed an effect of 50% or more. The list shows a part of the results.

Target: DPAP1 (Plasmodium falciparum, UniProt Q8IIJ9)
Experiment: primary screen, percent inhibition; read by cleavage of a fluorogenic dipeptide substrate; higher = more effect of the substance
Design: species or system P. falciparum D10 trophozoite lysates; single well
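Also: 30 min substrate incubation versus DMSO and 10 µM JCP410 controls.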

Sequence of DPAP1 (Q8IIJ9 whole entry, looked up): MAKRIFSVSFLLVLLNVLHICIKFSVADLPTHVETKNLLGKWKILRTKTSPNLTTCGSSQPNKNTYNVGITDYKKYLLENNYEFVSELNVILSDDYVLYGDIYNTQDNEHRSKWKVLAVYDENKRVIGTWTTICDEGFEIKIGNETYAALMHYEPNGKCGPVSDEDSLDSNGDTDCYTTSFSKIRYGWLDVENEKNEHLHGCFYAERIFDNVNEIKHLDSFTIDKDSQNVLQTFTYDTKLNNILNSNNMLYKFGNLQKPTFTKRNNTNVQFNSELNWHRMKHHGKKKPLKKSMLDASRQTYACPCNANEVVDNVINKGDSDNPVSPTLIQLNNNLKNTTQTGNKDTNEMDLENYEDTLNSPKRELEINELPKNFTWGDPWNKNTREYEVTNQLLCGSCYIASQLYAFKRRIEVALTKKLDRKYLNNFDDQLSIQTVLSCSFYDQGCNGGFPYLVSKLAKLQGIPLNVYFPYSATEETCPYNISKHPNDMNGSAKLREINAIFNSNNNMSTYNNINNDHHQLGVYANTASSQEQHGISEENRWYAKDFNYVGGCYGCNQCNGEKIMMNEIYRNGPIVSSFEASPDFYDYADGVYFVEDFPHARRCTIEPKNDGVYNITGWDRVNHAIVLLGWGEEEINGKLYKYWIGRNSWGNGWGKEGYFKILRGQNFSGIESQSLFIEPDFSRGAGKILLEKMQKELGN

Going from `CC1CC(C)CN(C(=O)Cn2c(=O)n(CCC(=O)NCc3ccccc3)c(=O)c3sccc32)C1` (stereo not drawn) to `O=C(CCc1nnc2n(Cc3ccccc3)c(=O)c3ccccc3n12)NCCc1ccccc1`, the “% Inhibition @ 10 uM” value rises from -8.56% to -0.692%.

Compared with `O=C(O)COc1ccc(C23CC4CC(CC(C4)C2)C3)cc1`, `O=C(O)COc1ccc(/C=C/c2nc3n(n2)C=COc2ccccc2-3)cc1` is higher in “% Inhibition @ 10 uM” value: -2.62% for the first, 5.88% for the second.

First: Brc1ccc(OCCCn2ccnc2)cc1
Second: Cc1nc2ccccc2n1S(=O)(=O)c1ccc(Br)cc1
The “% Inhibition @ 10 uM” value of the first is lower: -3.42% for the first, 1.65% for the second.

First: CCOC(=O)c1[nH]nc2c1CCCC2
Second: Cc1ccc(OCC(=O)Nc2sc3c(c2C#N)CCC3)cc1C
The “% Inhibition @ 10 uM” value of the first is higher: 6.13% for the first, -0.996% for the second.

Going from `O=C(Nc1cccc(Cl)c1)N1CCCCC1` to `CC1CCCCN1C(=O)NCc1noc2ccccc12` (stereo not drawn), the “% Inhibition @ 10 uM” value rises from -2.55% to 0.0244%.

Going from `Cc1ccc(C(=O)Nc2ccc(S(=O)(=O)N3CCOCC3)cc2)cc1Br` to `CC(C)(C)NS(=O)(=O)c1ccc(NC(=O)c2ccc(C(C)(C)C)cc2)cc1`, the “% Inhibition @ 10 uM” value falls from 0.245% to -5.91%.

Going from `CN1CCCC1c1cccnc1N` (stereo not drawn) to `Cn1c(C(=O)O)c(CNC2CCCCCC2)c2ccccc21`, the “% Inhibition @ 10 uM” value rises from -0.744% to 0.277%.

Going from `Cc1ccc(C(=O)COC(=O)c2cc(O)nc3ccccc23)cc1C` to `CCOC(=O)c1c(C)n(OCc2ccccc2)c2ccc3nonc3c12`, the “% Inhibition @ 10 uM” value falls from 4.95% to 1.16%.

Compared with `COc1ccc(-c2cc(C(=O)N3CCN(C4CCCCC4)CC3)[nH]n2)cc1`, `Cn1c(SCc2nc(-c3ccc(Br)cc3)no2)nnc1C1CCCCC1` is higher in “% Inhibition @ 10 uM” value: -1.3% for the first, 0.415% for the second.

First: CC(=O)c1c(O)cc(C)o/c1=N\c1cc(Cl)ccc1C
Second: Cc1nn(C)c(C)c1NC(=O)c1ccc(Cl)cc1
The “% Inhibition @ 10 uM” value of the first is higher: -0.736% for the first, -0.85% for the second.

First: Cc1cn2c(nc1=O)OC1C(O)C(CO)OC12 (stereo not drawn)
Second: CNC(=O)C1CCCN(c2nn3c(=O)cc(C)nc3s2)C1 (stereo not drawn)
The “% Inhibition @ 10 uM” value of the first is lower: -4.18% for the first, -3.34% for the second.

First: CC(C)OCCCNC(=O)CCCCCn1c(=O)[nH]c2ccsc2c1=O
Second: Cc1ccc(-n2nc3c(=O)n(CCCC(=O)NCCC4=CCCCC4)nc(C)c3c2C)cc1
The “% Inhibition @ 10 uM” value of the first is lower: -0.972% for the first, -0.128% for the second.

Going from `CC(C)c1ccc2[nH]c3c(c2c1)CCCC3O` (stereo not drawn) to `CCN(CC)C(=O)C1CCCN(Cc2ccc(F)c(F)c2)C1` (stereo not drawn), the “% Inhibition @ 10 uM” value falls from 3.54% to -1.77%.

First: COc1cccc(CNCc2c(C(=O)O)c(C)n(Cc3ccc(F)cc3)c2C)c1
Second: CCn1c(C(=O)O)c(CNCc2cc(OC)ccc2OC)c2ccc(C)cc21
The “% Inhibition @ 10 uM” value of the first is lower: -9.31% for the first, -2.39% for the second.

Going from `O=C1CCCC2=C1C(c1ccccc1Cl)NC(Nc1nc3ccccc3s1)=N2` (stereo not drawn) to `O=C(c1cc2ccccc2oc1=O)n1nnc2ccccc21`, the “% Inhibition @ 10 uM” value falls from 29.3% to -9.83%.

First: Nc1nc2ccccn2c1C(=O)c1ccccc1
Second: O=C(O)CCC(=O)Nc1ccc(C(=O)c2ccccc2)cc1
The “% Inhibition @ 10 uM” value of the first is higher: 6.27% for the first, 2.69% for the second.

First: CCOc1ccc(N(C(C)C(=O)NC2CCCC2)S(C)(=O)=O)cc1 (stereo not drawn)
Second: CCOc1ccc(N(C(C)C(=O)Nc2ccc(NC(C)=O)cc2)S(C)(=O)=O)cc1 (stereo not drawn)
The “% Inhibition @ 10 uM” value of the first is lower: -1.38% for the first, 13.4% for the second.

Compared with `COc1ccc(OC)c(-c2[nH]c3c(C#N)cnn3c2NC2CCC(C)CC2)c1` (stereo not drawn), `COc1ccc(Br)cc1/C=C1\N=C(c2cccc(C)c2OC)OC1=O` is lower in “% Inhibition @ 10 uM” value: 0.596% for the first, -1.29% for the second.

Going from `COc1cc(CNCCSc2nnnn2C)ccc1OCc1ccc(Cl)nc1` to `COc1cc(-c2nnc3n(Cc4ccccc4)c(=O)c4ccccc4n23)cc(OC)c1O`, the “% Inhibition @ 10 uM” value rises from -3.49% to -1.94%.

Going from `Cc1onc(-c2ccccc2)c1C(=O)N1CCC(C)CC1` to `Cc1cc(C(=O)N2CCOCC2)n(-c2ccccc2)n1`, the “% Inhibition @ 10 uM” value rises from -1.79% to 3.19%.

Going from `OC12C3CCCC14CCCC2(CCC3)O4` (stereo not drawn) to `CCCN1CCC(N2CCC(C)CC2)CC1`, the “% Inhibition @ 10 uM” value rises from -4.67% to -3.74%.

First: CSc1ccc(CN2CCN(c3cccc(C(F)(F)F)c3)CC2)cc1
Second: O=C(c1ccc(-c2ccccc2)cc1)N1CCN(Cc2ccc(Cl)cc2)CC1
The “% Inhibition @ 10 uM” value of the first is higher: -1.86% for the first, -11.3% for the second.

Going from `CN(C)CCCN(CCCN(C)C)CC1=CC[C@H]2C[C@@H]1C2(C)C` to `Cc1cccc2sc(N(CCN(C)C)C(=O)c3ccc4ncsc4c3)nc12`, the “% Inhibition @ 10 uM” value falls from -0.0494% to -1.14%.

Compared with `Cc1nnc(SCc2cccs2)nc1O`, `Nc1cc(O)nc(SCc2nc(-c3cccs3)no2)n1` is lower in “% Inhibition @ 10 uM” value: -1.43% for the first, -4.78% for the second.

Compared with `CCOc1ccc(C(=O)Nc2ccc(-c3nc4ncccc4o3)cc2)cc1Cl`, `Cc1ccc(-c2noc(CCC(=O)Nc3ccc(C)cn3)n2)cc1` is higher in “% Inhibition @ 10 uM” value: -4.82% for the first, 2.42% for the second.

First: O=C(Nc1ccc(Cc2ccc(NC(=O)c3cccs3)cc2)cc1)c1cccs1
Second: CCOc1ccc(C2=CC(C(C(C)=O)C(C)=O)c3ccccc3O2)cc1 (stereo not drawn)
The “% Inhibition @ 10 uM” value of the first is higher: 2.4% for the first, -5.2% for the second.

Compared with `Cc1ccc2c(=O)c(C(=O)c3cccc(Cl)c3)cn(CC(=O)NC(C)C)c2n1`, `CC(C)Cc1cc(C(=O)N2CCN(Cc3noc(CCC(=O)N(C)Cc4ccccc4)n3)CC2)no1` is higher in “% Inhibition @ 10 uM” value: 1.68% for the first, 4.94% for the second.

First: COc1cc(OC)cc(C(=O)Nc2ccc(Br)cc2C(F)(F)F)c1
Second: Cc1cc(/N=C/c2nc(-c3ccc(Br)cc3)oc2O)no1
The “% Inhibition @ 10 uM” value of the first is lower: -8.76% for the first, 9.09% for the second.

First: C=CCn1c(SCc2ccccc2)nc(O)cc1=O
Second: O=C(/C=C/c1ccccc1)OCCNC1=NS(=O)(=O)c2ccccc21
The “% Inhibition @ 10 uM” value of the first is lower: 1.38% for the first, 2.03% for the second.

First: O=C(NCCCN1CCOCC1)c1cc(-c2ccccc2)c(N2CCCCC2)s1
Second: O=[N+]([O-])c1ccc2nc3c4ccccc4n(CCCCN4CCOCC4)c3cc2c1
The “% Inhibition @ 10 uM” value of the first is lower: -6.64% for the first, 6.48% for the second.

Compared with `CC1(C)CC(=O)C(/C=N/c2ccc(N)cc2)=C(O)C1`, `CCOc1cc(-c2c(C)c(C)nc(N)c2C#N)ccc1O` is higher in “% Inhibition @ 10 uM” value: -7.02% for the first, -1.79% for the second.

Going from `CCN1CCC(NC(c2ccccc2)c2ccc(Cl)cc2)CC1` (stereo not drawn) to `CCOc1ccc2ncc(S(=O)(=O)c3ccccc3)c(N3CCC4(CC3)OCCO4)c2c1`, the “% Inhibition @ 10 uM” value falls from 1.57% to -3.5%.

Compared with `N#CC1=C(N)OC2=C(C(=O)CC(c3ccccc3)C2)C1c1ccco1` (stereo not drawn), `Cc1cc(C)c(S(=O)(=O)N2CCN(C)CC2)c(C)c1` is higher in “% Inhibition @ 10 uM” value: -1.98% for the first, 0.526% for the second.
